Over roughly 3,600 compounds, “viability index relative to DMSO control” has its median near 0.81; the lowest 2% begin near 0.13. Some of the results follow.
The compounds below were run on Plasmodium falciparum NF54 stage V gametocytes (assay: viability index relative to DMSO control (fraction); higher = less gametocyte killing). Conditions: 1.25 µM, incubation time: 72 h.
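Further: 384-well serum-free SaLSSA: MitoTracker Red CMXRos staining with saponin lysis, high-content imaging, treated-well particle count divided by plate-mean count of DMSO wells.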

| SMILES | viability index |
| --- | --- |
| N#Cc1c(N)nc(SCC(=O)c2ccc([N+](=O)[O-])cc2)c(C#N)c1-c1ccccc1 | 1.09 |
| CCOc1ccc(C2C(C(=O)OCCc3ccccc3)=C(C)NC3=C2C(=O)CC(C)(C)C3)cc1 (configuration not stated) | 0.95 |
| N=c1n(CCN2CCCCC2)c2ccccc2n1CC(O)COc1ccc(Cl)cc1 (configuration not stated) | 0.746 |
| C[n+]1ccccc1C=Cc1ccc(Br)cc1 | 0.826 |
| Fc1ccc(CSc2nc3cccnc3[nH]2)cc1 | 1.24 |
| COc1cccc(CNc2ncnc3sc(C(=O)NCC4COCCO4)c(C)c23)c1OC (configuration not stated) | 1.1 |
| CCSCCOC(=O)C1=C(C)NC2=C(C(=O)CCC2)C1c1ccc(OC)c(Br)c1 (configuration not stated) | 0.604 |
| O=C(Cn1nc([N+](=O)[O-])nc1Br)NC1CCCCC1 | 0.885 |
| CCCCc1nc(CN2CCC3(CC2)C(=O)N(CCc2ccccc2)C(=O)N3C)c[nH]1 | 1.11 |
| CC(=NO)c1ccc(NC2=C(N3CCCCC3)C(=O)c3ccccc3C2=O)cc1 | 0.245 |
| COc1cc(C2CC(=O)NC3=C2C(=O)CC(c2ccccc2Cl)C3)ccc1O (configuration not stated) | 0.739 |
| Cc1cc(Cl)c(S(=O)(=O)N2CCSCC2)cc1OCC(=O)NC1CCCCC1 | 0.727 |
| CCC(C)OC(=O)C1=C(C)NC2=C(C(=O)CC(c3ccc(OC)cc3)C2)C1c1ccc(O)cc1 (configuration not stated) | 1.2 |
| CCOC(=O)c1c(C)n(-c2ccccc2)c2ccc(OC(=O)c3ccccc3NC(=O)C(C)C)cc12 | 0.894 |
| CCOC(=O)c1c(CNc2ccncc2)n(C)c2cc(Br)c(OC(C)=O)cc12 | 0.78 |
| N[C@@H](COP(=O)(O)O)C(=O)O | 0.933 |
| COc1ccc(C2(CNCC(O)c3cccc([N+](=O)[O-])c3)CCCC2)cc1OC (configuration not stated) | 0.543 |
| CSc1nccc(-c2cc(F)cc3c2OC(CNC(=O)C2CC(=O)c4ccccc42)C3)n1 (configuration not stated) | 0.731 |
| Cc1ccc(-c2cn3c([n+]2-c2ccccc2)SCC3)cc1 | 0.728 |
| COc1ccccc1CNC(=O)c1nn(-c2ccc(Cl)cc2)c(=O)c2ccccc12 | 0.888 |
| COCCCNc1nc2cc(OC)c(OC)cc2c2nc(-c3ccccc3)nn12 | 0.843 |
| Cc1ccc2[nH]c(C(C#N)=Cc3cn(Cc4ccc(Cl)cc4Cl)nc3-c3ccccc3)nc2c1 | 0.287 |
| CCCNC1=C(c2ccc(OC)cc2)C(=O)c2ccccc21 | 0.731 |

| SMILES | viability index |
| --- | --- |
| COCCOC(=O)C1=C(C)NC2=C(C(=O)CC(c3ccc(OC)cc3)C2)C1c1ccc(Cl)cc1 (configuration not stated) | 0.596 |
| CCOc1ccc(C(=O)N2CCN(Cc3ccccc3)CC2)cc1 | 1 |
| CCCCOc1ccc(/C=C(/C#N)c2nc(-c3ccc(-c4ccccc4)cc3)cs2)cc1 | 0.942 |
| COc1ccc(CN2CCN(Cc3ccc(OC)c(C)c3C)C(CCO)C2)c(O)c1 (configuration not stated) | 0.971 |
| CC(=O)Nc1ccc(NS(=O)(=O)c2cc([N+](=O)[O-])ccc2Cl)cc1 | 1.03 |
| CC(C)CN1C(=O)N(CCCc2cccnc2)C(=O)C12CCN(C1CCOCC1)CC2 | 1.11 |
| O=C(CSc1nnc2c(n1)[nH]c1ccccc12)Nc1ccc([N+](=O)[O-])cc1 | 0.925 |
| O=C1c2ccccc2C2=Nc3ccccc3SC(c3cccc(F)c3)C12 (configuration not stated) | 0.417 |
| Cc1ccc(-c2nn3c(O)c4c(nc3c2C)CCCC4)cc1 | 0.609 |
| CCOC(=O)c1ccc(NC2=C(N3CCCCC3)C(=O)c3ccccc3C2=O)cc1 | 0.6 |
| Nc1cccc(C(=O)Nc2ccc(Oc3cccc(Oc4ccc(NC(=O)c5cccc(N)c5)cc4)c3)cc2)c1 | 0.86 |
| CCN1CCN(c2c(C(=O)c3ccccc3)cnc3cc(OC)c(OC)cc23)CC1 | 0.948 |
| COc1ccc(Nc2nc(NN=Cc3cc([N+](=O)[O-])ccc3OC)nc(Nc3ccc([N+](=O)[O-])cc3)n2)cc1 | 0.888 |
| COc1cc2nc(NCc3ccccn3)n3nc(-c4ccccc4)nc3c2cc1OC | 0.458 |
| c1ccc2nc3c(nnc4ccccc43)nc2c1 | 0.092 |
| Oc1c(C(Nc2ccccn2)c2cccc(Oc3ccccc3)c2)ccc2cccnc12 (configuration not stated) | 0.884 |
| C=CCC1(Nc2ccccc2)CCCCC1 | 1.14 |
| Cc1ccc(C(=O)NC2CCN(S(=O)(=O)c3c(C)cc(C)cc3C)CC2)cc1 | 0.964 |
| CCCc1c(C)nc2ccc(C)cc2c1O | 0.822 |
| Cn1cc(C=Cc2cc[n+](C)cc2)c2ccccc21 | 0.848 |
| Cc1cc(C)n(-c2ccc(NC(=O)C3CCN(Cc4ccc5nonc5c4)CC3)cc2)n1 | 0.837 |
| O=C(CN1CCN(C(=O)c2ccco2)CC1)Nc1ccccc1Br | 0.815 |
| CCOC(=O)C1=C(CC)NC2=C(C(=O)CCC2)C1c1ccc(N(C)C)cc1 (configuration not stated) | 0.679 |

| SMILES | viability index |
| --- | --- |
| CCOC(=O)c1ccc2c(c1)[C@@H]1C=CC[C@@H]1[C@H](c1ccc(OC)c([N+](=O)[O-])c1)N2 | 1.04 |
| CCCNC1=C(N(C(C)=O)c2ccc(C)cc2)C(=O)c2ccccc2C1=O | 0.0531 |
| O=C(Nc1ccc(OC(F)(F)F)cc1)c1cnn2c1NC(c1cccs1)CC2C(F)(F)F (configuration not stated) | 0.642 |
| Clc1ccc(-n2cc(-c3ccccc3)c3c(N4CCC(Cc5ccccc5)CC4)ncnc32)cc1 | 1.07 |
| Cc1ccccc1OCCSc1nc2ccc(NC(=O)c3cccs3)cc2s1 | 0.952 |
| COc1cc(C=CC(=O)Nc2c3c(nn2-c2ccc(F)cc2)CSC3)cc(OC)c1OC | 0.967 |
| O=C1C(Nc2cccc(O)c2)=C(N2CCCCC2)C(=O)c2ccccc21 | 0.661 |
| N=C(NN=Cc1cccc([N+](=O)[O-])c1)SC1CC(=O)N(c2cc(Cl)ccc2Cl)C1=O (configuration not stated) | 0.685 |
| CC(C)CCNC(=O)CN1C(=O)c2cccnc2Oc2ccccc21 | 0.984 |
| COc1ccc2nc(C)cc(Nc3ccc(Oc4ccc5ccccc5c4Cl)c(Cl)c3)c2c1 | 0.612 |
| CCOC(=O)C1=C(C)NC2=C(C(=O)C(C(=O)OCC)C(c3ccccc3OC)C2)C1c1ccc(OC)c(OC)c1 (configuration not stated) | 0.39 |
| CCOc1ccc(Nc2ccnc3cc(Cl)ccc23)cc1 | 0.888 |
| CCCN1CCN(CCCNC(=O)c2ccc3c(c2)sc2nc(-c4ccc(OC)cc4)cn23)CC1 | 0.98 |
| O=C1N(c2ccccc2)C[C@@H]2C[C@@H](c3ccc4nonc4c3)N3CCC[C@@]123 | 0.702 |
| Cc1cc(C)cc(NCC(O)Cn2c3ccc(Cl)cc3c3cc(Cl)ccc32)c1 (configuration not stated) | 0.755 |
| COc1ccc2[nH]c3ccccc3c(=O)c2c1 | 0.385 |
| Cc1cc(C)cc(NC2=C(N)C(=O)c3ccccc3C2=O)c1 | 0.707 |
| CCOc1cc2c(cc1OCC)C(c1cc(Cl)ccc1O)NCC2 (configuration not stated) | 1.04 |
| CCOc1ccc(-c2c[n+](-c3ccccc3)c3n2CCS3)cc1 | 1.28 |
| COc1ccc2[nH]c(SCC(=O)Nc3cccc(NC(=O)CSc4nc5cc(OC)ccc5[nH]4)n3)nc2c1 | 0.353 |
| CCCCCC[n+]1ccccc1C=Cc1ccc(N(C)C)cc1 | 0.61 |
| CCN1CCN(Cc2cc(=O)oc3cc(-c4ccccc4)c(O)cc23)CC1 | 0.632 |
| COc1ccccc1C1CC(c2ccccc2)=NN1C(=O)c1ccccc1 (configuration not stated) | 0.416 |

| SMILES | viability index |
| --- | --- |
| O=C(Nc1cccc(Cl)c1)c1cc2ccccc2cc1O | 0.779 |
| COc1cc(CNc2ccc(N3CCCCC3)cc2)ccc1OCc1ccccc1F | 0.614 |
| COc1ccc(-c2noc(N3CCc4ccccc4C3)n2)cc1 | 1.04 |
| Cc1ccc(C)c(Nc2nc(NCc3ccco3)c3ccccc3n2)c1 | 0.938 |
| O=C(NCCN1CCOCC1)c1ccc(Cl)cc1 | 0.771 |
| COC(=O)C1=C(C)NC(=Cc2cc(C)n(-c3ccccc3F)c2C)C1=O | 0.942 |
| CCOc1ccc2nc(C)cc(Nc3ccc(C)c(Cl)c3)c2c1 | 0.852 |
| COc1cccc(NC(=O)Cn2c(C)c(C(C)=O)c3ccccc32)c1 | 0.645 |
| COc1ccc(NC(=O)Cn2c(C)c(C=O)c3ccccc32)cc1 | 0.906 |
| Cc1ccc(C#N)c(SCc2nnc(-c3ccc(Cl)cc3)o2)n1 | 0.552 |
| C[n+]1ccc(C=Cc2ccc(Br)cc2)cc1 | 0.793 |
| Cc1ccc2c(c1)NC(c1ccc(F)cc1)C1=C(CC(c3ccccc3)CC1=O)N2 (configuration not stated) | 0.649 |
| CCc1ccc(NC(=O)c2sc3nc4c(c(-c5ccco5)c3c2N)CCCC4)cc1 | 0.587 |
| O=C(NCC1CCCO1)c1cc(S(=O)(=O)N2CCCCC2)c[nH]1 (configuration not stated) | 1.08 |
| Clc1ccc2c(N3CCCC3)ccnc2c1 | 0.837 |
| O=[N+]([O-])c1cc([N+](=O)[O-])c2cccnc2c1Nc1cccc2cccnc12 | 0.209 |
| COc1cccc(C(NC(=O)c2ccccc2)c2ccc3cccnc3c2O)c1 (configuration not stated) | 0.706 |
| Cc1nc2ccccc2c(O)c1CC=C(Cl)Cl | 0.699 |
| O=C1CC(c2ccccc2)CC2=C1C(c1cc(F)ccc1F)Nc1ccccc1N2 (configuration not stated) | 0.703 |
| Cc1ccc(NC2=C(c3ccc(C(F)(F)F)cc3)C(=O)c3ccccc32)cc1C | 1.01 |
| CC(Nc1cc(C)ccn1)=C(C#N)C#N | 1.04 |
| CCN(CC)c1ccc(NC(=O)c2cccs2)cc1 | 0.614 |
| CCOC(=O)N1CCC(NC(=O)c2c(C)nn(-c3cccc(C)c3)c2-n2cccc2)CC1 | 1.05 |

Source: the supplement of paper PMC4723716
